In all, about 48,000 compounds went through this assay and about 120 (0.25%) were called active. Inconclusive results (about 4%) are left out. The call rests on the fitted dose curve; in most records, active means well fitted activation curve with a large enough effect; inconclusive means small, poorly fitted or top-dose-only effect, or another doubt; inactive means no such curve, though single readings can be large or run the other way. Some of the results follow.
Assay: Primary qHTS for Identification of Small Molecule Activators of Huntingtin-Antisense Promoter Activity; further: nearly all actives have a fitted effect of over 55% in size
Settings: HEK293 HTT-AS promoter firefly luciferase reporter, 24 h; series mostly up to 57.5 µM; activity change, positive = activation: at the top concentration
Outline: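 Firefly luciferase readout (Dual-Glo, 10 min RT) after 24 h, 37 °C compound exposure (final up to 57.5 uM) of HEK293 reporter cells cultured 24 h beforehand; PTC124 at 50 uM final as control inhibitor; activity scaled vehicle 0%, zero RLU -100%.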

Activity change, positive = activation, inactive:
O=c1c2ccccc2n2c(-c3ccccc3O)nnc2n1Cc1ccc(F)cc1 -6.1%
Cc1cccc(Cn2ccn(Cc3ccc(Cl)cc3)c(=O)c2=O)c1 -5.62%
CCN(CC)C(=O)c1sc(NC(=O)c2nc3ncccn3n2)c(C(=O)OC)c1C -7.34% [at 11.5 µM, percent change from vehicle, -100% = no light]
Cc1ccc(S(=O)(=O)c2cnc(SCC(=O)Nc3cccc(Cl)c3)nc2N)cc1C 12.9%
CCN(CC)C(=O)Cn1cc(SCC(=O)Nc2cccc(F)c2)c2ccccc21 -15.4%
COc1ccc(C(CC(=O)O)NC(=O)c2cc3ccccc3oc2=O)cc1OC (stereo unspecified) -4.92%
Oc1ccc(Nc2nc3ccccc3n3cnnc23)cc1 20%
Cc1cccc(Cn2c(=O)n(Cc3ccc(C(=O)NC4CCN(Cc5ccccc5)CC4)cc3)c(=O)c3ccccc32)c1 -14.2%
CCOCCCNC(=O)CN1C(=O)COc2ccc(S(=O)(=O)N3CCCCCC3)cc21 -4.04%
CCOC(=O)c1cnc2c(C)cc(C)cc2c1Nc1cccc(C(=O)O)c1 -6.44%
Cc1ccc(C2c3c(-c4cc(C)ccc4O)n[nH]c3C(=O)N2Cc2ccco2)cc1 (stereo unspecified) -6.83%
O=C(Nc1cccc2cccnc12)c1ccccc1[N+](=O)[O-] 23.2%
CCCCn1c(SCC(=O)Nc2cccc(OC)c2)nc2c(sc3ccccc32)c1=O 5.87%
COc1ccccc1N1CCN(C(=O)C2CCN(S(=O)(=O)c3c(C)noc3/C=C/c3ccc(C)cc3)CC2)CC1 -26.3%
COc1cccc(Cn2c(=O)n(CC3CCC(C(=O)N4CCCCC4)CC3)c(=O)c3sccc32)c1 (stereo unspecified) -43.4%
Cc1cccc(Cc2cnc(NC(=O)C3Cc4ccc(C)cc4C(=O)O3)s2)c1 (stereo unspecified) -1.36%
CCOC(=O)N1CCN(Cc2nc3cc(NC(C)=O)ccc3n2C(C)C)CC1 -30%
Cc1cc(C)cc(-n2c(SCC(=O)NCc3ccco3)nc3c([nH]c4ccccc43)c2=O)c1 -32.5%
CC(C)NC(=O)CCn1c(SCc2c(F)cccc2Cl)nc2c(sc3ccccc32)c1=O -6.02%
COc1ccc(NC(=O)NCCc2c(C)nn(C)c2C)c(OC)c1 0.849%
Cc1nnc2c(N3CCN(c4ccccc4F)CC3)nc3ccccc3n12 -11.2%
CCOC(=O)c1cc(-c2ccc(C)cc2)n(CCC(=O)Nc2nc3c(C)cccc3s2)c1C -28.7%
Cc1cc(-n2c(SCC(=O)NCc3ccccc3)nc3ccsc3c2=O)ccc1Cl -35.5%
Nc1[nH]nc2nnc(-c3c(-c4ccccc4)nn4ccccc34)cc12 -18.4%
CCCCCC(=O)N1c2ccccc2C(C)(c2ccccc2)CC1(C)C (stereo unspecified) -18.7%
O=C(c1ccccc1Br)N(Cc1ccco1)C1CCS(=O)(=O)C1 (stereo unspecified) 14%
